For 27 compounds, cytotoxicity call and growth inhibition call results are on record in the antibiotic and cytotoxicity screens of Wong et al. (2023).

Each structure is given as a SMILES string. The list shows a part of the results.

The subject of one assay is HSkMC. Nature of the assay: cytotoxicity call (relative viability < 0.9). As to conditions: 10 µM.
For a further assay, the system named is HepG2. Nature of the assay: cytotoxicity call (relative viability < 0.9). The settings on record: 10 µM.
A further assay deals with S. aureus RN4220. Nature of the assay: growth inhibition call (relative growth <= 0.2). As to conditions: 50 µM.

For the compound `Brc1ccc(CSc2c[nH]c3ccccc23)cc1`, the cytotoxicity call in the assay on HSkMC was “inactive”. The cytotoxicity call in the assay with HepG2 was “active”. For the same compound, the growth inhibition call in the assay with S. aureus RN4220 is “active”.

As for `COc1ccc(NC(=O)N(C)C[C@@H]2OCCCC[C@@H](C)Oc3ccc(NC(=O)c4ccccc4)cc3C(=O)N([C@H](C)CO)C[C@H]2C)cc1`, the cytotoxicity call in the assay on HSkMC was “inactive”. Also, the cytotoxicity call in the assay with HepG2 is “active”. In the assay with S. aureus RN4220, the growth inhibition call is “inactive”.

As to `C[C@H](CO)N1C[C@H](C)[C@H](CN(C)C(=O)Cc2ccncc2)Oc2ncc(C#CC3(O)CCCC3)cc2C1=O`, the cytotoxicity call in the assay on HSkMC and in the assay on HepG2 was “inactive” throughout. The growth inhibition call in the assay with S. aureus RN4220 was “inactive”.

Consider `C[C@H]1CN([C@@H](C)CO)C(=O)Cc2cc(NC(=O)Nc3cccc4ccccc34)ccc2O[C@H]1CN(C)Cc1ccc(C(F)(F)F)cc1`, for which the cytotoxicity call with HSkMC and with HepG2 was “active” each time. The growth inhibition call in the assay with S. aureus RN4220 is “inactive”.

As for `COc1ccc(C(=O)Nc2ccc(CN3C(=O)[C@@]4(O[C@@H](CC(=O)N5Cc6ccccc6C[C@H]5CO)[C@H]([Si](C)(C)c5ccc(OC)cc5)[C@H]4C)c4ccccc43)cc2)cc1`, the cytotoxicity call in the assay with HSkMC and in the assay on HepG2 was “inactive” throughout. Moreover, the growth inhibition call with S. aureus RN4220 was “inactive”.

`O=C(C[C@H]1CC[C@@H]2[C@H](COC[C@@H](O)CN2C(=O)Nc2cccc(Cl)c2)O1)NCc1ccccc1F`: the cytotoxicity call in the assay with HSkMC is “inactive”. In addition, the cytotoxicity call in the assay on HepG2 was “active”. Moreover, in the assay with S. aureus RN4220, the growth inhibition call is “active”.

Turning to `C[C@@H]1CCCCO[C@@H](CN(C)S(=O)(=O)c2cccs2)[C@H](C)CN([C@H](C)CO)C(=O)c2cc(NC(=O)C3CCCCC3)ccc2O1`, the cytotoxicity call in the assay on HSkMC and in the assay with HepG2 was “inactive” throughout. For the same compound, the growth inhibition call with S. aureus RN4220 was “inactive”.

In the case of `NCCSc1cc(C(F)(F)F)nc2ccccc12`, the cytotoxicity call in the assay with HSkMC and with HepG2 was “inactive” in each case. Besides, the growth inhibition call in the assay on S. aureus RN4220 was “inactive”.

As for `CS(=O)(=O)c1ccc(S(C)(=O)=O)s1`, the cytotoxicity call in the assay with HSkMC and with HepG2 was “inactive” throughout. The growth inhibition call in the assay on S. aureus RN4220 was “inactive”.

Take `COc1ccc(S(=O)(=O)N[C@@H]2CC[C@H](CC(=O)N3CCC(Cc4ccccc4)CC3)O[C@@H]2CO)cc1`: the cytotoxicity call in the assay on HSkMC and with HepG2 was “inactive” throughout. The growth inhibition call in the assay on S. aureus RN4220 was “inactive”.

Consider `CC(C)N(C)Cc1nnc2n1CCN(CCO)C2`, for which the cytotoxicity call with HSkMC and with HepG2 was “inactive” throughout. The growth inhibition call in the assay on S. aureus RN4220 was “inactive”.

For `C[C@H]1CCCCO[C@H](CN(C)Cc2ccc(C(F)(F)F)cc2)[C@@H](C)CN([C@@H](C)CO)C(=O)c2cc(NS(=O)(=O)c3cn(C)cn3)ccc2O1`, the cytotoxicity call with HSkMC and in the assay with HepG2 was “inactive” each time. Besides, the growth inhibition call in the assay with S. aureus RN4220 was “inactive”.

Turning to `CCOC(=O)c1cnn2c(=O)cc(C)[nH]c12`, the cytotoxicity call in the assay on HSkMC and in the assay on HepG2 was “inactive” throughout. The growth inhibition call with S. aureus RN4220 was “inactive”.

In the case of `C[C@@H]1CN([C@@H](C)CO)C(=O)c2cccc(NS(=O)(=O)c3ccccc3)c2O[C@H]1CN(C)Cc1ccc(Cl)c(Cl)c1`, the cytotoxicity call with HSkMC and with HepG2 was “inactive” throughout. Further, the growth inhibition call in the assay with S. aureus RN4220 was “inactive”.

As to `O=C(NCCN1CCCC1)[C@H]1N[C@H]2c3ccc(-c4ccccc4)c(=O)n3C[C@H]2[C@@H]1CO`, the cytotoxicity call in the assay with HSkMC and with HepG2 was “inactive” throughout. In addition, in the assay on S. aureus RN4220, the growth inhibition call was “inactive”.

`COc1cccc(-c2ccc3c(c2)O[C@H](CN(C)C(=O)C2CC2)[C@H](C)CN([C@H](C)CO)S3(=O)=O)c1`: the cytotoxicity call in the assay on HSkMC and in the assay with HepG2 was “inactive” each time. Also, the growth inhibition call with S. aureus RN4220 is “inactive”.

For the compound `C[C@@H]1CCCCO[C@@H](CN(C)Cc2ccc3c(c2)OCO3)[C@H](C)CN([C@H](C)CO)C(=O)c2cc(NS(=O)(=O)c3ccc(Cl)cc3)ccc2O1`, the cytotoxicity call in the assay on HSkMC was “inactive”. Besides, the cytotoxicity call with HepG2 was “active”. Besides, the growth inhibition call in the assay with S. aureus RN4220 was “inactive”.

As to `COc1ccc(CN(C)C[C@H]2Oc3ccc(NC(=O)Nc4cccc5ccccc45)cc3C(=O)N([C@@H](C)CO)C[C@H]2C)cc1`, the cytotoxicity call with HSkMC and in the assay on HepG2 was “inactive” throughout. For the same compound, the growth inhibition call in the assay with S. aureus RN4220 was “inactive”.

With `C[C@@H]1CN([C@H](C)CO)C(=O)c2cccc(NC(=O)c3ccncc3)c2O[C@@H]1CN(C)Cc1ccc2c(c1)OCO2`, the cytotoxicity call with HSkMC and in the assay on HepG2 was “inactive” each time. Moreover, in the assay with S. aureus RN4220, the growth inhibition call is “inactive”.

With `CCCNC(=O)N(C)C[C@@H]1Oc2ncc(-c3ccc(C(=O)N(C)C)cc3)cc2C(=O)N([C@@H](C)CO)C[C@@H]1C`, the cytotoxicity call in the assay with HSkMC and in the assay with HepG2 was “inactive” throughout. In addition, the growth inhibition call with S. aureus RN4220 was “inactive”.

For `COc1ccc(S(=O)(=O)N(C)C[C@H]2Oc3ccc(NC(=O)CCCN(C)C)cc3CC(=O)N([C@H](C)CO)C[C@H]2C)cc1`, the cytotoxicity call in the assay on HSkMC and in the assay with HepG2 was “inactive” in each case. Moreover, the growth inhibition call with S. aureus RN4220 was “inactive”.

As to `C/C=C/c1ccc2c(c1)O[C@@H](CN(C)S(=O)(=O)c1ccccc1OC)[C@@H](C)CN([C@@H](C)CO)S2(=O)=O`, the cytotoxicity call in the assay with HSkMC and in the assay on HepG2 was “inactive” each time. The growth inhibition call in the assay with S. aureus RN4220 is “inactive”.

Turning to `Cc1ccc(S(=O)(=O)N(C)C[C@@H]2Oc3c(NS(=O)(=O)c4cn(C)cn4)cccc3C(=O)N([C@@H](C)CO)C[C@@H]2C)cc1`, the cytotoxicity call with HSkMC and with HepG2 was “inactive” throughout. Besides, the growth inhibition call in the assay with S. aureus RN4220 is “inactive”.

`C[C@@H]1CCCCO[C@H](CN(C)S(=O)(=O)c2cccs2)[C@H](C)CN([C@H](C)CO)C(=O)c2cc(NC(=O)c3ccccc3)ccc2O1`: the cytotoxicity call with HSkMC and in the assay on HepG2 was “inactive” in each case. For the same compound, the growth inhibition call in the assay with S. aureus RN4220 was “inactive”.

As for `C[C@H](CO)N1C[C@H](C)[C@H](CN(C)S(C)(=O)=O)Oc2ccc(NS(=O)(=O)c3ccccc3)cc2C1=O`, the cytotoxicity call with HSkMC and in the assay on HepG2 was “inactive” throughout. For the same compound, the growth inhibition call in the assay with S. aureus RN4220 is “inactive”.

`C[C@H]1CN([C@@H](C)CO)C(=O)Cc2cc(NS(C)(=O)=O)ccc2O[C@@H]1CN(C)Cc1ccc(C(=O)Nc2ccccc2N)cc1`: the cytotoxicity call in the assay with HSkMC and with HepG2 was “inactive” in each case. The growth inhibition call in the assay on S. aureus RN4220 is “inactive”.

Consider `C[C@@H]1CCCCO[C@H](CN(C)C(=O)NC2CCCCC2)[C@H](C)CN([C@H](C)CO)C(=O)c2cc(NC(=O)Nc3ccc(C(F)(F)F)cc3)ccc2O1`, for which the cytotoxicity call in the assay on HSkMC (human skeletal muscle cells) is “active”. For the same compound, the cytotoxicity call with HepG2 was “inactive”. Further, the growth inhibition call in the assay on S. aureus RN4220 is “inactive”.
